Experimental findings from patent US20110212108A1, “NEUREGULIN/ERBB SIGNALING AND INTEGRIN” (THE REGENTS OF THE UNIVERSITY OF CALIFORNIA, priority 2008, published 2011) are described below.

Sequences of proteins named here, by UniProt entry; tags and fusion partners are left off. A change or cut given only in a name is not applied to a line headed by its entry.
UniProt P06756: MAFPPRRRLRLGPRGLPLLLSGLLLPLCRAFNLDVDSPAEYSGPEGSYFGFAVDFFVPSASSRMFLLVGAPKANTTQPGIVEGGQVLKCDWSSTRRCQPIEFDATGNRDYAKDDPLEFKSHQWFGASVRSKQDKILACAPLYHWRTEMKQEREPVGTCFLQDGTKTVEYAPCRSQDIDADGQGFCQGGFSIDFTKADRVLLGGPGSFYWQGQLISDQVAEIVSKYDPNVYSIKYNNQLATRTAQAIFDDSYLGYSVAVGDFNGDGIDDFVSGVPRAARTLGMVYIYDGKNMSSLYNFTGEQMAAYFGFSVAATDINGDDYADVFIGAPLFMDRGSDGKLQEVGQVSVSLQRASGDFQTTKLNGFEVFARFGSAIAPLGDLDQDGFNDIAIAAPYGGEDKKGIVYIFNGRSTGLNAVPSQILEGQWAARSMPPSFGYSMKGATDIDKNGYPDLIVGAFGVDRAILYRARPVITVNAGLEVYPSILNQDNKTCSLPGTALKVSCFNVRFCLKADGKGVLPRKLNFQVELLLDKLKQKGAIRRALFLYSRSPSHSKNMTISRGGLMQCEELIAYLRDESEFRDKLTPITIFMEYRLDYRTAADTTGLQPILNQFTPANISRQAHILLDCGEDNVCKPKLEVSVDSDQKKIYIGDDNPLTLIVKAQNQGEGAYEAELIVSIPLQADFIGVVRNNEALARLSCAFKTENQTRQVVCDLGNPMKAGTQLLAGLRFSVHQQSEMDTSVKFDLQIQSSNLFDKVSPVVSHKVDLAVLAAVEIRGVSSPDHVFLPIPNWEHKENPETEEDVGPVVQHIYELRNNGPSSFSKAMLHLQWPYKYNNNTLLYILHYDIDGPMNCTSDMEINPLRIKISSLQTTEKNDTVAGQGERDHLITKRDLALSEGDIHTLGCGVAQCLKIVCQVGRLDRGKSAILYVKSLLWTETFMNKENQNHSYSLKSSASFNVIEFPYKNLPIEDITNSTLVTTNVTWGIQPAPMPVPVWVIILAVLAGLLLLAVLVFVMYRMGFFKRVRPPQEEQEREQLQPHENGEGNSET
UniProt P23229: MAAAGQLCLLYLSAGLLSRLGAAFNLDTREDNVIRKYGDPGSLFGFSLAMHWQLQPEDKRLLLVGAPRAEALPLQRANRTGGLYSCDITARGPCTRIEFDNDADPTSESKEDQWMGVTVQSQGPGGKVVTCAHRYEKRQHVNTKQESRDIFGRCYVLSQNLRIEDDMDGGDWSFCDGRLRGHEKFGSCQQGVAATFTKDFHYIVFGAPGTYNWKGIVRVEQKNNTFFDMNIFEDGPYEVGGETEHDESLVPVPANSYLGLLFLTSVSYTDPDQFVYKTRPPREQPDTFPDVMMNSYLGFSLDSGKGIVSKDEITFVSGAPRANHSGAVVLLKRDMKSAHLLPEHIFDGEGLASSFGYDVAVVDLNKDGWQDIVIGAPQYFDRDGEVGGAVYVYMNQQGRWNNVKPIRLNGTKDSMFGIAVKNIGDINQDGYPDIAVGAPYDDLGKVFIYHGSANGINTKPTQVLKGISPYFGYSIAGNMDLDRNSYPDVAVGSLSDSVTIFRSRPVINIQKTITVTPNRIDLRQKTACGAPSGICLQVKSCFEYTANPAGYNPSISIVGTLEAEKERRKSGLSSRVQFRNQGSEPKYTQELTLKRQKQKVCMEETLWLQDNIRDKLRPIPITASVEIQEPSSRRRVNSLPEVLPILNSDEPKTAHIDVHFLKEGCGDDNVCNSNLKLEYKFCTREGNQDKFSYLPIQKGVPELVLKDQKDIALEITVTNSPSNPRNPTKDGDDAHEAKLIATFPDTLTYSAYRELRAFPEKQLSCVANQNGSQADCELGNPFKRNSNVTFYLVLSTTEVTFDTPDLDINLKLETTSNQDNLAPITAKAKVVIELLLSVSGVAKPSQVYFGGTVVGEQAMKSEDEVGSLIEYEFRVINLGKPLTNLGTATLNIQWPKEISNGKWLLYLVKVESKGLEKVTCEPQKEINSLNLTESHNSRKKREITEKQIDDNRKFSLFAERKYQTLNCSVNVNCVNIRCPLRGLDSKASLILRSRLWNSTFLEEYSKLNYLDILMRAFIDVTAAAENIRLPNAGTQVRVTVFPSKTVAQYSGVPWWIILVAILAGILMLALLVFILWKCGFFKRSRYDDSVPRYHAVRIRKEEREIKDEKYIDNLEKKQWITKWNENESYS
UniProt P16144: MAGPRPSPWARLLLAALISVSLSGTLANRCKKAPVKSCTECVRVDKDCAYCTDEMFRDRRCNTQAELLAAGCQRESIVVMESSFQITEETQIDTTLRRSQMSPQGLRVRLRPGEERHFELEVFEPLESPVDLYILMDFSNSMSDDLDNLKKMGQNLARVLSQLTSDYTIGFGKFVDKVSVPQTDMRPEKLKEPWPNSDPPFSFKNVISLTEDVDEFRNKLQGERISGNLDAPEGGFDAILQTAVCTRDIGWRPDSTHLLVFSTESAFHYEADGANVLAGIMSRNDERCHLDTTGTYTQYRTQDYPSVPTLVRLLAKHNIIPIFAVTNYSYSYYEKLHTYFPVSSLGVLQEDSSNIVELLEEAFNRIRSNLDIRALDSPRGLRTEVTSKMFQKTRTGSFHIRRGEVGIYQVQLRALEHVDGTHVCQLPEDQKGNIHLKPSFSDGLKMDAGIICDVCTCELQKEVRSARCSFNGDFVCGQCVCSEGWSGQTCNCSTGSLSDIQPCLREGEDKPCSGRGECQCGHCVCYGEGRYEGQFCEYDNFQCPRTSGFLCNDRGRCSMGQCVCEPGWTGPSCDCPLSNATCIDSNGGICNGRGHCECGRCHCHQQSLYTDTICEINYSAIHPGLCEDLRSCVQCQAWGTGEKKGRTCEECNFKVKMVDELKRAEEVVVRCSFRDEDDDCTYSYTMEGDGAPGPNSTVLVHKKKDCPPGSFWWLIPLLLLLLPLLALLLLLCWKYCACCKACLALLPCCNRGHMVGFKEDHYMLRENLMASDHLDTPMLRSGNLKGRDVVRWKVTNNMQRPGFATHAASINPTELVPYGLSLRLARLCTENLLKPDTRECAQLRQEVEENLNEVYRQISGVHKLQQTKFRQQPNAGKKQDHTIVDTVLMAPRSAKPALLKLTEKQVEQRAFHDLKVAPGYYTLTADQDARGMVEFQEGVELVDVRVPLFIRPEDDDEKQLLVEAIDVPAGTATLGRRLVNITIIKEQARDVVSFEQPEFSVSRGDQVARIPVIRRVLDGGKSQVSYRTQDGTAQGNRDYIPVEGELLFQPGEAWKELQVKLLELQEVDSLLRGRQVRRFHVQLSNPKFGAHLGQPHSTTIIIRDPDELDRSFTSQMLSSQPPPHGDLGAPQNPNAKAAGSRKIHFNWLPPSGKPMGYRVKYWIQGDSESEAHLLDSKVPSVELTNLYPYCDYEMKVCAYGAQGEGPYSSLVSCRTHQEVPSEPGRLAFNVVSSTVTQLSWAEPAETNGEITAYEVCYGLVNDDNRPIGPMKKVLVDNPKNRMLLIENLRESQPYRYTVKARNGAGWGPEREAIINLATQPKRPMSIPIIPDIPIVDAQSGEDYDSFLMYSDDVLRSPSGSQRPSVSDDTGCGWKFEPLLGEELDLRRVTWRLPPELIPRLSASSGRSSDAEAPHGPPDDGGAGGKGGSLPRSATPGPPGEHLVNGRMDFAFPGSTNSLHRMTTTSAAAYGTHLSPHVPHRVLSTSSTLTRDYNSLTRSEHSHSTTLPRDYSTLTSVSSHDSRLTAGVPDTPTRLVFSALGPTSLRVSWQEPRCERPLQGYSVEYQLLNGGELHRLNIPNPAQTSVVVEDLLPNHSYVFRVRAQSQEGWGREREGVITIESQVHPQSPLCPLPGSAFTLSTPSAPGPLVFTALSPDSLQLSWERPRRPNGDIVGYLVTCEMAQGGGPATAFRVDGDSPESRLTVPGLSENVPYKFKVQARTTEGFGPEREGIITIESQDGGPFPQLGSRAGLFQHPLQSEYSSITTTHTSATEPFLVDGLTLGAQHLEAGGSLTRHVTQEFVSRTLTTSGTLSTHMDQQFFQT

Assay [1] concerns the target soluble recombinant integrin αvβ3 (UniProt P06756). Nature of the assay: ELISA-type assay, GST-NRG1α (175-241) immobilised, soluble αvβ3. Background: ELISA stands for enzyme-linked immunosorbent assay.
The target is the same in assay [2]. Nature of the assay: ELISA-type assay, NRG1 immobilised, soluble αvβ3 5 µg/ml with 1 mM Mn2+.
Assay [3] shares this target. Nature of the assay: ELISA-type assay, wt GST-NRG1 (175-222) immobilised, soluble αvβ3 5 µg/ml with 1 mM Mn2+.
The target in assay [4] is human integrin α6β4 on CHO cells (α6β4-CHO) (human) (UniProt P23229+P16144). The experiment in a line: cell adhesion to immobilised NRG1.
In assay [5] the target is soluble recombinant integrin αvβ3 (UniProt P06756). Nature of the assay: ELISA-type assay, 3KE immobilised, soluble αvβ3 with 1 mM Mn2+.
The target is the same in assay [6]. Nature of the assay: ELISA-type assay, 2KE immobilised, soluble αvβ3 with 1 mM Mn2+.

These are yes or no findings as the source states them, for the method shown. Some binding calls cover weakened binding; strength is not graded here. Tags and fused reporters may be left off the sequences shown.

B1: GST-NRG1α (175-241), wild type (EGF-like motif and α domain of human neuregulin 1α as GST fusion protein) (ligand, not shown: a dimerising Fc or GST)
chain: GTSHLVKCAEKEKTFCVNGGECFMVKDLSNPSRYLCKCQPGFTGARCTENVPMKVQNQEKAEELYQK
As to B1, the binding result in assay [1] is on record as “binds”.
As to GTSHLVKCAEKEKTFCVNGGECFMVKDLSNPSRYLCKCQPGFTGARCT (ligand, not shown: a dimerising Fc or GST) [GST-NRG1 (175-222), wild type EGF-like domain of human neuregulin 1 as GST fusion protein], the binding result in assay [2], in assay [3] and in assay [4] was “binds” each time.
For GTSHLVECAEEEETFCVNGGECFMVKDLSNPSRYLCKCQPGFTGARCT (ligand, not shown: a dimerising Fc or GST; large carriers; small tags and cut ends) [3KE (175-222) mutant of NRG1 (Lys181/Lys185/Lys187 to Glu), GST fusion protein], the binding result in assay [5] is on record as “no binding (tested: soluble αvβ3 5 µg/ml)”.
Turning to GTSHLVKCAEEEETFCVNGGECFMVKDLSNPSRYLCKCQPGFTGARCT (ligand, not shown: a dimerising Fc or GST; large carriers; small tags and cut ends) [2KE (175-222) mutant of NRG1 (Lys185/Lys187 to Glu), GST fusion protein], in assay [6], the binding result is “no binding (tested: soluble αvβ3 5 µg/ml)”.
